Test results: paper PMC4207660, “Identification and Characterization of Hundreds of Potent and Selective Inhibitors of Trypanosoma brucei Growth from a Kinase-Targeted Library Screening Campaign” (PLoS Neglected Tropical Diseases, 2014)
In brackets after ≈: the same amount, converted by molar mass.

Key:
[1] = test system: T. brucei brucei parasites (Lister 427 strain); experiment: Dose response growth inhibition assay (resazurin, 72 h); format: cell-based; details: Trypanosoma brucei; T. b. brucei growth inhibition; read-out: Tbb pEC50 (converted)
Experimental: Greiner sterile black clear bottom 384-well assay plates were pre-dispensing with 200 nL of compound in each well, from master plates at 1 mM (100% DMSO) containing selection from the GSK compound collection. Controls of 0% response (control 1, 200 nL of 100%DMSO) and 100% response (control 2, 200 nL of 1 mM pentamidine) were included in each assay plate in columns 6 and 18, respectively. Plates containing 200 nL of 100% DMSO were included randomly in the assay, to assess quality through all process. […] After this period, 10 µL of 200 µM resazurin solution in prewarmed HMI-9 were added to each well, and plates were allowed to incubate 2 hours more prior fluorescence reading in a Wallac EnVision Multilabel Plate Reader (Perkin-Elmer). Raw fluorescent data from the Envision plate reader were uploaded into GSK HTS database (ActivityBase). Activity of each well was normalized as a percentage of inhibition per-plate basis using the following equation: [drawing 1]
For dose-response experiments, serial compound dilutions of selected hits from the primary campaign were plotted against compound concentration. Dose response master plates were prepared by 3-fold dilutions (starting with 10 mM DMSO stock solutions), providing 11 concentrations. From these master plates, 200 nL per well was stamped in final assay plates, including the same controls describe in the primary single shot assay. Compounds were dispensed as serial dilution curve format, with 11 points at 3-fold dilution and 40 µM as starting top concentration (n = 2). Growth inhibition assay was performed as described in previous assay.
A 4-parameter equation describing a sigmoidal dose-response curve was then fitted with an adjustable baseline using ActivityBase XE Runner software. Fitting of dose-response curves and EC50 determination were normalized as percentage of inhibition based on controls. The curve-fit model was based on a 4-parameter equation: [drawing 2]
Trypanosome cell culture. […]

[2] = CLND kinetic solubility assay; format: physicochemical; details: phosphate buffered saline, pH 7.4, aqueous buffer, kinetic from dmso stock; Measured; read-out: Aq Sol
Experimental: 5 µL of 10 mM DMSO stock solution was diluted to 100 µL with pH 7.4 phosphate buffered saline, equilibrated for 1 hour at room temperature, filtered through Millipore MultiscreenHTS-PCF filter plates (MSSL BPC). The filtrate was quantified by suitably calibrated flow injection Chemi-Luminescent Nitrogen Detection.

[3] = molecular target: T1, Human Serum Albumin (HSA) (Homo sapiens, UniProt P02768); experiment: Protein binding assay (HPLC stationary phase), HSA; format: in vitro ADME; details: Measured
T1 construct: purchased Chiral Technologies, France
Experimental: Chemically bonded Human Serum Albumin (HSA) and Alpha-1-acidglycoprotein HPLC stationary phases (Chiral Technologies, France) were used for measuring compounds' binding to plasma proteins, applying linear gradient elution up to 30% iso-propanol. The run time was 6 min, including the re-equilibration of the stationary phases with the 50 mM pH7.4 ammonium acetate buffer. The obtained gradient retention times were standardised using a calibration set of mixtures as described in the references. The average standard error of the assay depends on the binding strength and kinetics of the compounds.

solubility kinetic at 1 h [2] [µM] | SMILES | EC50 [1] [nM] | HSA % binding [3] [%]
– | O=C(NC(CO)c1ccccc1)c1coc(-c2c[nH]c3nccc(F)c23)c1 (stereo not drawn) [NEU-0001174] | 31.6 | –
3 (≈ 1.11 µg/mL) | CC(C)=Cc1cccc2c1C(=NNc1ccc(S(N)(=O)=O)cc1)C(=O)N2 [NEU-0001183] | – | –
334 (≈ 130 µg/mL) | CC(C)CC(=O)c1ccc2c(c1)/C(=C/c1cc(Cl)c(O)c(Cl)c1)C(=O)N2 [NEU-0001186] | 631 | –
– | CCCNc1nc(Nc2cnn(C)c2)c2c(=O)[nH]ccc2n1 [NEU-0001187] | – | 85.65
59 (≈ 23.7 µg/mL) | COCc1ccc(-c2cc(C(N)=O)c3[nH]cc(C4CCS(=O)(=O)CC4)c3c2)o1 [NEU-0001192] | 316 | 89.2
– | O=C(Nc1ccc(-c2ccnc3[nH]ccc23)s1)C1(Cc2ccccc2)CCCNC1 (stereo not drawn) [NEU-0001240] | – | 95.5
